First the molecules themselves.
B1: GPR68, Q15743 (parent)
chain: MGNITADNSSMSCTIDHTIHQTLAPVVYVTVLVVGFPANCLSLYFGYLQIKARNELGVYLCNLTVADLFYICSLPFWLQYVLQHDNWSHGDLSCQVCGILLYENIYISVGFLCCISVDRYLAVAHPFRFHQFRTLKAAVGVSVVIWAKELLTSIYFLMHEEVIEDENQHRVCFEHYPIQAWQRAINYYRFLVGFLFPICLLLASYQGILRAVRRSHGTQKSRKDQIQRLVLSTVVIFLACFLPYHVLLLVRSVWEASCDFAKGVFNAYHFSLLLTSFNCVADPVLYCFVSETTHRDLARLRGACLAFLTCSRTGRAREAYPLGAPEASGKSGAQGEEPELLTKLHPAFQTPNSPGSGGFPTGRLA

The variants in series [1] derive from B1. In words: cAMP reporter score (Enrich2 score, wild type = 0); higher = more signal; HEK293T, FACS bins.
Series [2] covers variants of B1. In words: surface expression score (Enrich2 score, wild type = 0); higher = more signal; HEK293T, FACS bins.

Scores with a large standard error are left out. Not listed are two conditions whose scores span a narrow range. In variant names, del marks residues removed and ins residues inserted between the two positions. For some of these results: The concentration of ogerin is not given here.

M158_H159insGS: the cAMP reporter score is -0.656 in series [1] (pH 5.5); -1.47 in series [1] (pH 6); -1.07 in series [1] (pH 6, modulator: ogerin); -0.964 in series [1] (pH 6.5, modulator: ogerin). Moreover, the surface expression score in series [2] was determined as 0.66.
On the same counts, the results for F156H are -0.986, -1.54, -1.14, -1.7 and -1.33.
The matching figures for F156V: -0.174, -0.457, -1.26, -1.57 and -0.222.
Regarding F156M, the cAMP reporter score is -0.789 in series [1] (pH 5.5); -1.18 in series [1] (pH 6); -0.664 in series [1] (pH 6.5, modulator: ogerin). Moreover, the surface expression score in series [2] was 0.721.
As for F156T, the cAMP reporter score was -1.05 in series [1] (pH 5.5); -0.673 in series [1] (pH 6); -1.77 in series [1] (pH 6, modulator: ogerin); -1.08 in series [1] (pH 6.5, modulator: ogerin). For the same variant, the surface expression score in series [2] is -0.821.
The matching figures for F156L: -0.012, -0.087, -1.35, -0.987 and 0.112.
As to F156K, the cAMP reporter score in series [1] (pH 5.5) was -0.853; in series [1] (pH 6), -1; in series [1] (pH 6, modulator: ogerin), -1.36; in series [1] (pH 6.5, modulator: ogerin) it was -0.378.
Consider F156P, for which the cAMP reporter score was -1.05 in series [1] (pH 5.5); 1.75 in series [1] (pH 6); -1.49 in series [1] (pH 6, modulator: ogerin); 0.909 in series [1] (pH 6.5, modulator: ogerin). The surface expression score in series [2] was -1.2.
In the case of F156D, the cAMP reporter score was -1.12 in series [1] (pH 5.5); -0.861 in series [1] (pH 6); -1.71 in series [1] (pH 6.5, modulator: ogerin). The surface expression score in series [2] was -1.08.
As to F156R, the cAMP reporter score is -0.318 in series [1] (pH 5.5); -0.973 in series [1] (pH 6); -1.39 in series [1] (pH 6, modulator: ogerin); -1.65 in series [1] (pH 6.5, modulator: ogerin). In series [2], the surface expression score is -1.35.
On the same counts, the results for F156G are -2, -1.02, -1.4, -1.24 and -2.21.
For the variant F156I, the cAMP reporter score is 1.75 in series [1] (pH 5.5); 1.17 in series [1] (pH 6); 0.408 in series [1] (pH 6, modulator: ogerin); -0.899 in series [1] (pH 6.5, modulator: ogerin). Also, in series [2], the surface expression score came to 2.09.
On the same counts, the results for F156S are -1.38, -0.073, -2.52, -1.75 and -1.24.
As for F156Q, the cAMP reporter score in series [1] (pH 5.5) is -2.26; in series [1] (pH 6) it was -0.422; in series [1] (pH 6.5, modulator: ogerin), -0.339. In series [2], the surface expression score is -1.22.
For F156C, the cAMP reporter score was -1.69 in series [1] (pH 5.5); -1.5 in series [1] (pH 6); -2.11 in series [1] (pH 6, modulator: ogerin); -1.44 in series [1] (pH 6.5, modulator: ogerin).
As to F156Y, the cAMP reporter score in series [1] (pH 5.5) is 0.234; in series [1] (pH 6), 0.585; in series [1] (pH 6, modulator: ogerin) it was -0.09; in series [1] (pH 6.5, modulator: ogerin) it was -0.259. In series [2], the surface expression score was -0.06.
In the case of F156A, the cAMP reporter score was -0.867 in series [1] (pH 5.5); -0.907 in series [1] (pH 6); -1.8 in series [1] (pH 6.5, modulator: ogerin). Moreover, the surface expression score in series [2] was -0.48.
Turning to F156E, the cAMP reporter score in series [1] (pH 5.5) is -2.25; in series [1] (pH 6.5, modulator: ogerin), -0.693. For the same variant, in series [2], the surface expression score was -1.73.
F156del: the cAMP reporter score in series [1] (pH 5.5) was -0.176; in series [1] (pH 6) it was -0.024; in series [1] (pH 6, modulator: ogerin), -1.61; in series [1] (pH 6.5, modulator: ogerin) it was -0.474. Moreover, the surface expression score in series [2] worked out at 0.135.
The matching figures for M158_H159del: -0.876, -1.21, -1.78, -1.37 and -1.27.
On to M158P, for which the cAMP reporter score in series [1] (pH 5.5) was -0.363; in series [1] (pH 6) it was -1.74; in series [1] (pH 6, modulator: ogerin), -1.76; in series [1] (pH 6.5, modulator: ogerin), -1.27. In addition, in series [2], the surface expression score is -2.46.
As for M158Y, the cAMP reporter score in series [1] (pH 5.5) came to 1.2; in series [1] (pH 6), 0.412; in series [1] (pH 6, modulator: ogerin), 1.2; in series [1] (pH 6.5, modulator: ogerin), 1.15. In series [2], the surface expression score worked out at 0.196.
Consider M158R, for which the cAMP reporter score is -0.652 in series [1] (pH 5.5); -0.074 in series [1] (pH 6); -0.03 in series [1] (pH 6, modulator: ogerin); -1.11 in series [1] (pH 6.5, modulator: ogerin).
For the variant M158T, the cAMP reporter score in series [1] (pH 5.5) is -1.28; in series [1] (pH 6) it was -1.54; in series [1] (pH 6, modulator: ogerin), -1.31; in series [1] (pH 6.5, modulator: ogerin) it was -1.7. In series [2], the surface expression score was -1.18.
Regarding M158G, the cAMP reporter score in series [1] (pH 5.5) was 2.5; in series [1] (pH 6), -0.421; in series [1] (pH 6, modulator: ogerin), -0.689. Further, in series [2], the surface expression score turned out to be 0.769.
Regarding M158K, the cAMP reporter score was 0.621 in series [1] (pH 5.5); -0.265 in series [1] (pH 6); -0.208 in series [1] (pH 6, modulator: ogerin); 0.81 in series [1] (pH 6.5, modulator: ogerin).
As to M158I, the cAMP reporter score in series [1] (pH 5.5) is -0.407; in series [1] (pH 6), 0.855; in series [1] (pH 6, modulator: ogerin) it was 0.919; in series [1] (pH 6.5, modulator: ogerin) it was -0.416. Besides, the surface expression score in series [2] is -0.207.
The matching figures for M158F: 0.417, -0.763, 1.11, -1.73 and -0.236.
Turning to M158W, the cAMP reporter score in series [1] (pH 5.5) is -0.483; in series [1] (pH 6) it was -0.93; in series [1] (pH 6, modulator: ogerin), -0.428; in series [1] (pH 6.5, modulator: ogerin), -0.869. Moreover, the surface expression score in series [2] was -0.977.
For M158N, the cAMP reporter score worked out at 1.91 in series [1] (pH 5.5); 1.01 in series [1] (pH 6); 1.47 in series [1] (pH 6, modulator: ogerin). Moreover, the surface expression score in series [2] worked out at 0.699.
As for M158V, the cAMP reporter score in series [1] (pH 5.5) is -0.46; in series [1] (pH 6), -0.206; in series [1] (pH 6, modulator: ogerin), -0.121; in series [1] (pH 6.5, modulator: ogerin), -0.336. Moreover, the surface expression score in series [2] was -0.496.
On the same counts, the results for M158Q are 0.101, -0.415, 0.064, -0.26 and -0.12.
